# According to the supplement of paper PMC8728848:
# This is one part of the list.
# Experiments:
# Assay in all cases: glycan array binding signal (z-score within array); higher = stronger binding
# Conditions in all cases: glycan notation: IUPAC condensed, linker removed
# [1] = target: Neu5Ac(a2-3)Gal(b1-4)GlcNAc(b1-2)[Neu5Ac(a2-3)Gal(b1-4)GlcNAc(b1-4)]Man(a1-3)[GlcNAc(b1-4)][Neu5Ac(a2-3)Gal(b1-4)GlcNAc(b1-2)[Neu5Ac(a2-3)Gal(b1-4)GlcNAc(b1-6)]Man(a1-6)]Man(b1-4)GlcNAc(b1-4)GlcNAc
# Outline: (§1)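 Columns mapping to the same glycan were averaged after glycan names were converted to IUPAC-condensed notation. The data come from 3228 arrays in the Consortium for Functional Glycomics database, limited to those with an available protein sequence. Binding is reported as a within-array Z-score averaged across arrays of one protein sequence and across linkers.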
# [2] = target: Neu5Ac(a2-3)Gal(b1-4)GlcNAc(b1-2)[Neu5Ac(a2-3)Gal(b1-4)GlcNAc(b1-4)]Man(a1-3)[GlcNAc(b1-4)][Neu5Ac(a2-3)Gal(b1-4)GlcNAc(b1-4)Man(a1-6)]Man(b1-4)GlcNAc(b1-4)GlcNAc
# Outline: as §1
# [3] = target: Neu5Ac(a2-3)Gal(b1-4)GlcNAc(b1-2)[Neu5Ac(a2-3)Gal(b1-4)GlcNAc(b1-6)]Man(a1-6)[Neu5Ac(a2-3)Gal(b1-4)GlcNAc(b1-2)Man(a1-3)][GlcNAc(b1-4)]Man(b1-4)GlcNAc(b1-4)GlcNAc
# Outline: as §1
# [4] = target: Neu5Ac(a2-3)Gal(b1-4)GlcNAc(b1-3)Gal
# Outline: as §1
# [5] = target: Neu5Ac(a2-3)Gal(b1-4)GlcNAc(b1-3)Gal(b1-3)GlcNAc
# Outline: as §1
# [6] = target: Neu5Ac(a2-3)Gal(b1-4)GlcNAc(b1-3)Gal(b1-4)GlcNAc
# Outline: as §1
# [7] = target: Neu5Ac(a2-3)Gal(b1-4)GlcNAc(b1-3)Gal(b1-4)GlcNAc(b1-2)Man(a1-3)[Neu5Ac(a2-3)Gal(b1-4)GlcNAc(b1-3)Gal(b1-4)GlcNAc(b1-2)Man(a1-6)]Man(b1-4)GlcNAc(b1-4)GlcNAc
# Outline: as §1
# [8] = target: Neu5Ac(a2-3)Gal(b1-4)GlcNAc(b1-3)Gal(b1-4)GlcNAc(b1-3)Gal(b1-4)GlcNAc
# Outline: as §1
# [9] = target: Neu5Ac(a2-3)Gal(b1-4)GlcNAc(b1-3)Gal(b1-4)GlcNAc(b1-3)Gal(b1-4)GlcNAc(b1-2)Man(a1-3)[Neu5Ac(a2-3)Gal(b1-4)GlcNAc(b1-3)Gal(b1-4)GlcNAc(b1-3)Gal(b1-4)GlcNAc(b1-2)Man(a1-6)]GalNAc
# Outline: as §1
# [10] = target: Neu5Ac(a2-3)Gal(b1-4)GlcNAc(b1-3)Gal(b1-4)GlcNAc(b1-3)GalNAc
# Outline: as §1
# [11] = target: Neu5Ac(a2-3)Gal(b1-4)GlcNAc(b1-3)Gal(b1-4)GlcNAc(b1-3)[Neu5Ac(a2-3)Gal(b1-4)GlcNAc(b1-3)Gal(b1-4)GlcNAc(b1-6)]GalNAc
# Outline: as §1
# [12] = target: Neu5Ac(a2-3)Gal(b1-4)GlcNAc(b1-3)Gal(b1-4)GlcNAc(b1-6)[Gal(b1-3)]GalNAc
# Outline: as §1
# [13] = target: Neu5Ac(a2-3)Gal(b1-4)GlcNAc(b1-3)Gal(b1-4)[Fuc(a1-3)]GlcNAc
# Outline: as §1
# [14] = target: Neu5Ac(a2-3)Gal(b1-4)GlcNAc(b1-3)GalNAc
# Outline: as §1
# [15] = target: Neu5Ac(a2-3)Gal(b1-4)GlcNAc(b1-3)[Neu5Ac(a2-3)Gal(b1-4)GlcNAc(b1-6)]GalNAc
# Outline: as §1
# [16] = target: Neu5Ac(a2-3)Gal(b1-4)GlcNAc(b1-6)GalNAc
# Outline: as §1
# [17] = target: Neu5Ac(a2-3)Gal(b1-4)GlcNAc(b1-6)[Gal(b1-3)]GalNAc
# Outline: as §1
# [18] = target: Neu5Ac(a2-3)Gal(b1-4)GlcNAc(b1-6)[Neu5Ac(a2-3)Gal(b1-3)]GalNAc
# Outline: as §1
# [19] = target: Neu5Ac(a2-3)Gal(b1-4)GlcNAc6S
# Outline: as §1
# [20] = target: Neu5Ac(a2-3)Gal(b1-4)[Fuc(a1-3)]GlcNAc
# Outline: as §1
# [21] = target: Neu5Ac(a2-3)Gal(b1-4)[Fuc(a1-3)]GlcNAc(b1-2)Man
# Outline: as §1
# [22] = target: Neu5Ac(a2-3)Gal(b1-4)[Fuc(a1-3)]GlcNAc(b1-3)Gal
# Outline: as §1
# [23] = target: Neu5Ac(a2-3)Gal(b1-4)[Fuc(a1-3)]GlcNAc(b1-3)Gal(b1-4)GlcNAc
# Outline: as §1
# [24] = target: Neu5Ac(a2-3)Gal(b1-4)[Fuc(a1-3)]GlcNAc(b1-3)Gal(b1-4)[Fuc(a1-3)]GlcNAc(b1-3)Gal(b1-4)[Fuc(a1-3)]GlcNAc
# Outline: as §1
# [25] = target: Neu5Ac(a2-3)Gal(b1-4)[Fuc(a1-3)]GlcNAc(b1-3)GalNAc
# Outline: as §1
# [26] = target: Neu5Ac(a2-3)Gal(b1-4)[Fuc(a1-3)]GlcNAc(b1-6)[Gal(b1-3)]GalNAc
# Outline: as §1
# [27] = target: Neu5Ac(a2-3)Gal(b1-4)[Fuc(a1-3)]GlcNAc(b1-6)[Neu5Ac(a2-3)Gal(b1-3)]GalNAc
# Outline: as §1
# [28] = target: Neu5Ac(a2-3)Gal(b1-4)[Fuc(a1-3)]GlcNAc6S
# Outline: as §1
# [29] = target: Neu5Ac(a2-3)Gal6S(b1-4)GlcNAc
# Outline: as §1
# [30] = target: Neu5Ac(a2-3)Gal6S(b1-4)[Fuc(a1-3)]GlcNAc
# Outline: as §1
# [31] = target: Neu5Ac(a2-3)GalNAc
# Outline: as §1
# [32] = target: Neu5Ac(a2-3)GalNAc(b1-4)GlcNAc
# Outline: as §1
# [33] = target: Neu5Ac(a2-3)[GalNAc(b1-4)]Gal(b1-4)Glc
# Outline: as §1
# [34] = target: Neu5Ac(a2-3)[GalNAc(b1-4)]Gal(b1-4)GlcNAc
# Outline: as §1
# [35] = target: Neu5Ac(a2-3)[GalNAc(b1-4)]Gal(b1-4)GlcNAc(b1-3)GalNAc
# Outline: as §1
# [36] = target: Neu5Ac(a2-3)[Neu5Ac(a2-6)]GalNAc
# Outline: as §1
# [37] = target: Neu5Ac(a2-6)Gal
# Outline: as §1
# [38] = target: Neu5Ac(a2-6)Gal(b1-3)GlcNAc(b1-3)[Gal(b1-4)GlcNAc(b1-6)]Gal(b1-4)Glc
# Outline: as §1
# [39] = target: Neu5Ac(a2-6)Gal(b1-4)Glc
# Outline: as §1
# [40] = target: Neu5Ac(a2-6)Gal(b1-4)GlcNAc
# Outline: as §1
# [41] = target: Neu5Ac(a2-6)Gal(b1-4)GlcNAc(b1-2)Man
# Outline: as §1
# [42] = target: Neu5Ac(a2-6)Gal(b1-4)GlcNAc(b1-2)Man(a1-3)Man(b1-4)GlcNAc(b1-4)GlcNAc
# Outline: as §1
# [43] = target: Neu5Ac(a2-6)Gal(b1-4)GlcNAc(b1-2)Man(a1-3)[Gal(b1-4)GlcNAc(b1-2)Man(a1-6)]Man(b1-4)GlcNAc(b1-4)GlcNAc
# Outline: as §1
# [44] = target: Neu5Ac(a2-6)Gal(b1-4)GlcNAc(b1-2)Man(a1-3)[GlcNAc(b1-2)Man(a1-6)]Man(b1-4)GlcNAc(b1-4)GlcNAc
# Outline: as §1
# [45] = target: Neu5Ac(a2-6)Gal(b1-4)GlcNAc(b1-2)Man(a1-3)[GlcNAc(b1-4)][Neu5Ac(a2-6)Gal(b1-4)GlcNAc(b1-2)Man(a1-6)]Man(b1-4)GlcNAc(b1-4)GlcNAc
# Outline: as §1
binder,measurement,setting,value
rCnSL-A (Clitocybe nebularis) (protein) VNPNLPGPNDVFVGFRGTNNIVGAIYEKDGIKDTPLNNGADAEMGPGSYITDGLFTARIFASGSAGNNPGTTATVCKIYASGVQWRGAPKGYIPVAYFGNGPTAEQRRQTYLRTLGLPGTAIRFGNLNTNPGQGPTAPRQMVVPPGPLRSLLKASCFPAADTRLPQTLHYFEKRVDWNIITAADSQTWGH,glycan array binding signal (z-score),[1],-0.262
same,glycan array binding signal (z-score),[2],-0.265
same,glycan array binding signal (z-score),[3],-0.327
same,glycan array binding signal (z-score),[4],-0.357
same,glycan array binding signal (z-score),[5],-0.298
same,glycan array binding signal (z-score),[6],-0.151
same,glycan array binding signal (z-score),[7],0.262
same,glycan array binding signal (z-score),[8],-0.388
same,glycan array binding signal (z-score),[9],0.765
same,glycan array binding signal (z-score),[10],-0.238
same,glycan array binding signal (z-score),[11],-0.017
same,glycan array binding signal (z-score),[12],-0.155
same,glycan array binding signal (z-score),[13],-0.21
same,glycan array binding signal (z-score),[14],-0.249
same,glycan array binding signal (z-score),[15],-0.128
same,glycan array binding signal (z-score),[16],-0.254
same,glycan array binding signal (z-score),[17],-0.122
same,glycan array binding signal (z-score),[18],-0.165
same,glycan array binding signal (z-score),[19],-0.227
same,glycan array binding signal (z-score),[20],-0.266
same,glycan array binding signal (z-score),[21],-0.547
same,glycan array binding signal (z-score),[22],-0.229
same,glycan array binding signal (z-score),[23],-0.169
same,glycan array binding signal (z-score),[24],0.07
same,glycan array binding signal (z-score),[25],-0.056
same,glycan array binding signal (z-score),[26],-0.138
same,glycan array binding signal (z-score),[27],-0.116
same,glycan array binding signal (z-score),[28],-0.17
same,glycan array binding signal (z-score),[29],-0.297
same,glycan array binding signal (z-score),[30],-0.252
same,glycan array binding signal (z-score),[31],-0.307
same,glycan array binding signal (z-score),[32],-0.232
same,glycan array binding signal (z-score),[33],-0.278
same,glycan array binding signal (z-score),[34],-0.285
same,glycan array binding signal (z-score),[35],0.066
same,glycan array binding signal (z-score),[36],-0.254
same,glycan array binding signal (z-score),[37],-0.26
same,glycan array binding signal (z-score),[38],-0.088
same,glycan array binding signal (z-score),[39],-0.27
same,glycan array binding signal (z-score),[40],-0.237
same,glycan array binding signal (z-score),[41],-0.241
same,glycan array binding signal (z-score),[42],-0.28
same,glycan array binding signal (z-score),[43],-0.139
same,glycan array binding signal (z-score),[44],-0.247
same,glycan array binding signal (z-score),[45],-0.186
